# Measurements published in the supplement of paper PMC8728848.
# The other results are listed elsewhere or left out.
# Assays:
# Assay in all cases: glycan array binding signal (z-score within array); higher = stronger binding
# Conditions in all cases: glycan notation: IUPAC condensed, linker removed
# [1] = molecular target: Gal(b1-4)GlcNAc(b1-3)GalNAc
# Summary of the method: (§1)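 From the Consortium for Functional Glycomics database, 3228 arrays were curated, keeping only those whose protein sequence was available. Binding is given as a within-array Z-score averaged across arrays sharing a protein sequence and across linkers. Negative Z-scores can be read as non-binding.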
# [2] = molecular target: Gal(b1-4)GlcNAc(b1-3)[Gal(b1-4)GlcNAc(b1-6)]GalNAc
# Summary of the method: as §1
# [3] = molecular target: Gal(b1-4)GlcNAc(b1-6)Gal(b1-4)GlcNAc(b1-6)GalNAc
# Summary of the method: as §1
# [4] = molecular target: Gal(b1-4)GlcNAc(b1-6)GalNAc
# Summary of the method: as §1
# [5] = molecular target: Gal(b1-4)GlcNAc(b1-6)[Gal(b1-3)]GalNAc
# Summary of the method: as §1
# Gal3S(b1-3)GalNAc = molecular target: Gal3S(b1-3)GalNAc
# Summary of the method: as §1
# Gal3S(b1-3)GlcNAc = molecular target: Gal3S(b1-3)GlcNAc
# Summary of the method: as §1
# [6] = molecular target: Gal3S(b1-3)[Fuc(a1-4)]GlcNAc
# Summary of the method: as §1
# Gal3S(b1-4)Glc = molecular target: Gal3S(b1-4)Glc
# Summary of the method: as §1
# Gal3S(b1-4)Glc6S = molecular target: Gal3S(b1-4)Glc6S
# Summary of the method: as §1
# Gal3S(b1-4)GlcNAc = molecular target: Gal3S(b1-4)GlcNAc
# Summary of the method: as §1
# Gal3S(b1-4)GlcNAc6S = molecular target: Gal3S(b1-4)GlcNAc6S
# Summary of the method: as §1
# Gal3S6S(b1-4)GlcNAc = molecular target: Gal3S6S(b1-4)GlcNAc
# Summary of the method: as §1
# Gal3S6S(b1-4)GlcNAc6S = molecular target: Gal3S6S(b1-4)GlcNAc6S
# Summary of the method: as §1
# Gal4S(b1-4)GlcNAc = molecular target: Gal4S(b1-4)GlcNAc
# Summary of the method: as §1
# Gal4S6S(b1-4)GlcNAc = molecular target: Gal4S6S(b1-4)GlcNAc
# Summary of the method: as §1
# Gal6S(b1-4)Glc = molecular target: Gal6S(b1-4)Glc
# Summary of the method: as §1
# Gal6S(b1-4)Glc6S = molecular target: Gal6S(b1-4)Glc6S
# Summary of the method: as §1
# Gal6S(b1-4)GlcNAc = molecular target: Gal6S(b1-4)GlcNAc
# Summary of the method: as §1
# GalNAc(a1-3)Gal = molecular target: GalNAc(a1-3)Gal
# Summary of the method: as §1
# GalNAc(a1-3)GalNAc = molecular target: GalNAc(a1-3)GalNAc
# Summary of the method: as §1
# [7] = molecular target: GalNAc(b1-3)Gal(a1-4)Gal(b1-4)GlcNAc
# Summary of the method: as §1
# GalNAc(b1-3)GalNAc = molecular target: GalNAc(b1-3)GalNAc
# Summary of the method: as §1
# GalNAc(b1-4)GlcNAc = molecular target: GalNAc(b1-4)GlcNAc
# Summary of the method: as §1
# Glc(a1-4)Glc = molecular target: Glc(a1-4)Glc
# Summary of the method: as §1
# Glc(a1-6)Glc(a1-6)Glc = molecular target: Glc(a1-6)Glc(a1-6)Glc
# Summary of the method: as §1
# Glc(b1-4)Glc = molecular target: Glc(b1-4)Glc
# Summary of the method: as §1
# Glc(b1-6)Glc = molecular target: Glc(b1-6)Glc
# Summary of the method: as §1
# GlcA(b1-3)Gal = molecular target: GlcA(b1-3)Gal
# Summary of the method: as §1
# GlcA(b1-6)Gal = molecular target: GlcA(b1-6)Gal
# Summary of the method: as §1
# [8] = molecular target: GlcNAc(a1-3)Gal(b1-4)GlcNAc
# Summary of the method: as §1
# [9] = molecular target: GlcNAc(a1-6)Gal(b1-4)GlcNAc
# Summary of the method: as §1
# [10] = molecular target: GlcNAc(b1-2)Gal(b1-3)GalNAc
# Summary of the method: as §1
# [11] = molecular target: GlcNAc(b1-2)Man(a1-3)[GlcNAc(b1-2)Man(a1-6)]Man(b1-4)GlcNAc(b1-4)GlcNAc
# Summary of the method: as §1
# GlcNAc(b1-3)Gal = molecular target: GlcNAc(b1-3)Gal
# Summary of the method: as §1
# [12] = molecular target: GlcNAc(b1-3)Gal(b1-3)GalNAc
# Summary of the method: as §1
# GlcNAc(b1-3)Gal(b1-4)Glc = molecular target: GlcNAc(b1-3)Gal(b1-4)Glc
# Summary of the method: as §1
binder,measurement,setting,value
LKPARMA (Neurospora crassa) (protein) MSFHVTAEDARRIEVRDNRTILFARLRREDGEWNDASYELDQIIGNNDGHFQWGGGQNFTETAEDIRFHPKEGAAEQPILRARLRDCNGEFHDRDVNLTEIVENVNGEFQAKF,glycan array binding signal (z-score),[1],-0.249
same,glycan array binding signal (z-score),[2],-0.252
same,glycan array binding signal (z-score),[3],-0.252
same,glycan array binding signal (z-score),[4],-0.25
same,glycan array binding signal (z-score),[5],-0.252
same,glycan array binding signal (z-score),Gal3S(b1-3)GalNAc,-0.25
same,glycan array binding signal (z-score),Gal3S(b1-3)GlcNAc,-0.247
same,glycan array binding signal (z-score),[6],-0.196
same,glycan array binding signal (z-score),Gal3S(b1-4)Glc,-0.23
same,glycan array binding signal (z-score),Gal3S(b1-4)Glc6S,-0.135
same,glycan array binding signal (z-score),Gal3S(b1-4)GlcNAc,-0.251
same,glycan array binding signal (z-score),Gal3S(b1-4)GlcNAc6S,-0.25
same,glycan array binding signal (z-score),Gal3S6S(b1-4)GlcNAc,0.049
same,glycan array binding signal (z-score),Gal3S6S(b1-4)GlcNAc6S,-0.189
same,glycan array binding signal (z-score),Gal4S(b1-4)GlcNAc,-0.249
same,glycan array binding signal (z-score),Gal4S6S(b1-4)GlcNAc,-0.246
same,glycan array binding signal (z-score),Gal6S(b1-4)Glc,-0.252
same,glycan array binding signal (z-score),Gal6S(b1-4)Glc6S,-0.087
same,glycan array binding signal (z-score),Gal6S(b1-4)GlcNAc,-0.246
same,glycan array binding signal (z-score),GalNAc(a1-3)Gal,-0.252
same,glycan array binding signal (z-score),GalNAc(a1-3)GalNAc,-0.249
same,glycan array binding signal (z-score),[7],2.94
same,glycan array binding signal (z-score),GalNAc(b1-3)GalNAc,-0.223
same,glycan array binding signal (z-score),GalNAc(b1-4)GlcNAc,-0.249
same,glycan array binding signal (z-score),Glc(a1-4)Glc,-0.245
same,glycan array binding signal (z-score),Glc(a1-6)Glc(a1-6)Glc,7.12
same,glycan array binding signal (z-score),Glc(b1-4)Glc,1.29
same,glycan array binding signal (z-score),Glc(b1-6)Glc,6.76
same,glycan array binding signal (z-score),GlcA(b1-3)Gal,-0.254
same,glycan array binding signal (z-score),GlcA(b1-6)Gal,-0.17
same,glycan array binding signal (z-score),[8],-0.249
same,glycan array binding signal (z-score),[9],-0.251
same,glycan array binding signal (z-score),[10],-0.252
same,glycan array binding signal (z-score),[11],-0.251
same,glycan array binding signal (z-score),GlcNAc(b1-3)Gal,-0.249
same,glycan array binding signal (z-score),[12],-0.248
same,glycan array binding signal (z-score),GlcNAc(b1-3)Gal(b1-4)Glc,-0.243
